Experimental findings from PubChem BioAssay AID504444 (National Center for Advancing Translational Sciences (NCATS), 2011) are described below.

Hit rate of the full screen: of about 360,000 compounds, about 7,500 (2.1%) were called active. Roughly 20% stayed inconclusive and do not appear here. Calls come from the whole dose curve; as a rule, active = well fitted inhibition curve with a large enough effect; inconclusive = small, poorly fitted or top-dose-only effect, or effect the other way; inactive = flat fitted curve, though single readings scatter. The list shows a part of the results, in another mix than the full data.
% is set by controls: 0 for no effect and ±100 for the full control effect; potency is the fitted concentration of half-maximal effect.

The nature of this test: Nrf2 qHTS screen for inhibitors. Note: nearly all actives have a fitted effect of over 60% in size. As to conditions: A549 ARE-Fluc reporter, luciferase luminescence, 18-24 h; series mostly up to 46 µM; activity change, negative = inhibition: at the top concentration. Summed up: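 A549 ARE_Fluc cells, 5000/well, 5% FBS OPTI-MEM; compounds in dose-response, 18-24 h at 37 °C/5% CO2; CellTiter-Fluor viability read (Ex 405/Em 525), then BugLite luciferase luminescence = Nrf2 activity.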
`COc1cc(C(CC(=O)Nc2ncccc2C)N2Cc3ccccc3C2=O)cc(OC)c1OC` (stereo unspecified): the “activity change, negative = inhibition” value is inactive: -18.7%.

For `CCOC(=O)C(=Cc1cc(=O)c(OC)co1)C(=O)OCC`, the Potency is active: 9.2 µM.

In the case of `O=C(c1ccco1)N1CCN(C(=O)c2cnn(-c3cccc(F)c3)c2C2CCNCC2)CC1`, the “activity change, negative = inhibition” value is inactive: 1.41%.

As for `CC1(C)OC(c2ccccc2)=C/C(=C\C=N\NC(=O)c2ccncc2)O1`, the “activity change, negative = inhibition” value was inactive: -8.78%.

As to `COc1ccc(/C=C(/NC(=O)c2ccccc2)C(=O)N/N=C/c2sccc2C)cc1`, the “activity change, negative = inhibition” value is inactive: 1.23%.

In the case of `COC(C[C@@H]1O[C@@H]1[C@H](O)[C@H](C)OCc1ccccc1)OC`, the “activity change, negative = inhibition” value is inactive: 5.1%.

Turning to `O=C(Nc1ccccc1)C1=C[C@H](c2csc3ccccc23)C[C@H](OCc2ccc(CO)cc2)O1`, the “activity change, negative = inhibition” value was inactive: -29.1%.

Consider `COc1ccc(OC)c(CCNC(=O)Cn2nc(C)c3c(C)n(-c4ccc(C)cc4)nc3c2=O)c1`, for which the Potency is active: 10.3 µM.

`C=CC[C@@H](CC(=O)N[C@H](CO)Cc1ccccc1)C(=O)N[C@@H](COC(=O)[C@@H](CC=C)Cc1ccc(F)cc1)Cc1c[nH]c2ccccc12`: the “activity change, negative = inhibition” value is inactive: 5.43%.

For `COc1cc(/C=C(\C#N)c2nc3ccccc3[nH]2)ccc1OC(=O)c1ccco1`, the “activity change, negative = inhibition” value was inactive: 26.3%.

For `Cc1cc(/N=C/C=C2/N(C)c3ccccc3C2(C)C)n(CCC#N)n1`, the “activity change, negative = inhibition” value was inactive: -21.1%.

Take `COc1ccc(C(=O)Nc2nnc(S(=O)(=O)N3CCOCC3)s2)cc1`: the “activity change, negative = inhibition” value was inactive: 0.0485%.

`Cc1ccc(NC(=O)CCC(=O)N2CCOc3ccccc32)c(Cl)c1`: the “activity change, negative = inhibition” value was inactive: -5.59%.

Take `Nc1cc2c3c(cccc3c1)C(=O)N(CCN1CCCC1)C2=O`: the Potency was active: 13 µM.

As to `CCOC(=O)c1c(C)nc2c(c1-c1ccccc1)C(=O)c1ccccc1-2`, the Potency is active: 13 µM.

Turning to `O=C(Nc1nnc(S(=O)(=O)N2CCOCC2)s1)c1ccccc1Cl`, the “activity change, negative = inhibition” value was inactive: -0.551%.

For the compound `COCCCNc1nc2cc(OC)c(OC)cc2c2nc(-c3ccccc3)nn12`, the “activity change, negative = inhibition” value was inactive: -4.74%.

Consider `CC(C)(C)NC(=O)CSc1nc2ccc(NC(=O)CSc3nnnn3Cc3ccccc3)cc2s1`, for which the Potency was active: 8.2 µM.

On to `Cc1ccc(C(=O)N(C)CCOc2ccccc2)cc1S(=O)(=O)N1CCCCC1`, for which the Potency was active: 20.6 µM.

As for `O=C(N/C(=C\c1ccc([N+](=O)[O-])cc1)C(=O)N1CCOCC1)c1ccco1`, the “activity change, negative = inhibition” value is inactive: 6.63%.

Take `CC1CCCCN1CCCNC(=O)Cn1ncc2c([nH]c3ccccc32)c1=O` (stereo unspecified): the “activity change, negative = inhibition” value was inactive: 5.17%.

In the case of `Cc1cc(C)cc(N(CC(=O)NC2CCCCC2)C(=O)CCCC(=O)Nc2ccccn2)c1`, the Potency was active: 20.6 µM.

As for `Brc1cc(Br)c2ncnc(N3CCCCC3)c2c1`, the Potency was active: 25.9 µM.

In the case of `Cc1ccc(-c2ccc(=O)n(Cc3cc(C)ccc3C)n2)cc1`, the “activity change, negative = inhibition” value was inactive: -18.3%.

On to `CCOC(=O)/C=c1/s/c(=C\c2c(OC)ccc3ccccc23)c(=O)n1CC(=O)NCC1CCCO1` (stereo unspecified), for which the “activity change, negative = inhibition” value is inactive: 1.97%.

As for `CCCCOc1ccccc1C(=O)N(Cc1ccc(C)o1)C1CCS(=O)(=O)C1` (stereo unspecified), the “activity change, negative = inhibition” value was inactive: 24.2%.

For the compound `CCOc1ccc(NC(=O)Cn2c(=O)cc(C)c3c(C)nn(C)c32)cc1`, the Potency is active: 13 µM.

On to `Cc1ccccc1S(=O)(=O)Cc1ccc(C(=O)NCCc2ccccc2)o1`, for which the “activity change, negative = inhibition” value is inactive: 4.58%.

Turning to `O=C1c2ccccc2C(=O)c2cc(S(=O)(=O)Nc3cccc4cccnc34)ccc21`, the Potency was active: 5.17 µM.

Turning to `C#C[C@]1(O)CC[C@H]2[C@@H]3CCC4=Cc5oncc5C[C@]4(C)[C@H]3CC[C@@]21C`, the “activity change, negative = inhibition” value is inactive: 17.4%.

With `O=C(Nc1ccccc1)C1=C[C@H](c2ccc(Br)cc2)C[C@H](OCc2ccc(CO)cc2)O1`, the “activity change, negative = inhibition” value is inactive: -20.7%.

On to `CC(C)(C)[C@H]1COC(=O)[C@@H](NC(=O)OCC2c3ccccc3-c3ccccc32)C/C=C\C[C@@H](CC(=O)N[C@@H](CO)Cc2ccccc2)C(=O)N1`, for which the “activity change, negative = inhibition” value is inactive: -11.1%.

For `CC(C)(C)OC(=O)COc1cc(OCC(=O)OC(C)(C)C)c2c(=O)cc(-c3ccccc3)oc2c1`, the Potency is active: 23.1 µM.

As to `O=C(NC1CC1)C1=C[C@H](c2c[nH]c3ccccc23)C[C@H](OCc2ccc(CO)cc2)O1`, the “activity change, negative = inhibition” value is inactive: 5.36%.

In the case of `COc1ccccc1C(=O)Nc1cc(-c2ccc(C)cc2)no1`, the “activity change, negative = inhibition” value is inactive: 23.9%.

As to `O=C(Nc1ccc(S(=O)(=O)N2CCCCC2)cc1)c1ccc(CN2CCOCC2)cc1`, the Potency was active: 4.61 µM.

With `CC(NC(=O)c1ccccc1Cl)C(=O)OCc1cn2cc(Cl)ccc2n1` (stereo unspecified), the “activity change, negative = inhibition” value is inactive: 10.2%.

In the case of `CCOC(=O)C1CCCN(S(=O)(=O)CCNC(=O)c2cccc(OC)c2)C1` (stereo unspecified), the Potency is active: 18.4 µM.

`C[C@@H](C(=O)Nc1ccc2ccccc2c1)[C@@H]1C[C@@]1(C)[C@@H](NC(=O)OCc1ccccc1)c1ccccc1`: the “activity change, negative = inhibition” value is inactive: 8.52%.

With `Cn1c(=O)c(=O)n(C)c2cc(S(=O)(=O)N3CCN(c4ccccc4F)CC3)ccc21`, the “activity change, negative = inhibition” value is inactive: -20.2%.

Take `O=S1(=O)[C@H]2CC3O[C@]2(C[C@@H]3c2ccc(F)cc2)CN1Cc1ccc(Cl)cc1`: the “activity change, negative = inhibition” value is inactive: -12.3%.

Consider `C[C@H]1CC[C@]2(O[C@@H](CCO)C[C@@H](O)[C@@H]2O)O1`, for which the “activity change, negative = inhibition” value is inactive: -4.69%.

Take `N#C/C(=C(/O)CN1CCN(c2ccccc2F)CC1)c1nc(-c2ccccc2)cs1`: the “activity change, negative = inhibition” value was inactive: -24.4%.

Take `O=C1NC(=S)N/C1=C/c1cccnc1`: the “activity change, negative = inhibition” value is inactive: -22.2%.

As for `CCOc1ccc(NC(=O)NCCN2CCN(c3ccccc3F)CC2)cc1`, the “activity change, negative = inhibition” value is inactive: -3.16%.

For the compound `CC(C)CCN(C(=O)c1csnn1)C(C(=O)NC1CCCC1)c1ccc(F)cc1` (stereo unspecified), the Potency is active: 23.1 µM.

Take `C=CC[C@H](CC(=O)N[C@H](CO)Cc1ccccc1)C(=O)N[C@@H](COC(=O)[C@@H](CC=C)Cc1ccc(F)cc1)Cc1c[nH]c2ccccc12`: the “activity change, negative = inhibition” value is inactive: -9.5%.

Turning to `C=CCC[C@@H](Cc1ccc(F)cc1)C(=O)OC[C@H](Cc1c[nH]c2ccccc12)NC(=O)[C@@H](CC=C)CC(=O)N[C@@H](CO)Cc1ccccc1`, the “activity change, negative = inhibition” value is inactive: -14.1%.

Consider `Cc1ccc(-c2csc3n[nH]c(=S)n23)cc1`, for which the “activity change, negative = inhibition” value was inactive: -10.8%.

Turning to `Cc1nnsc1C(=O)NC1CCCc2c1cnn2-c1ccc(C(C)(C)C)cc1` (stereo unspecified), the Potency is active: 2.06 µM.

Consider `Cn1cccc1C(=O)NC(=O)COC(=O)c1ccc(S(C)(=O)=O)c([N+](=O)[O-])c1`, for which the “activity change, negative = inhibition” value was inactive: 2.7%.

As to `CN1CCN(C(=O)/C(=C\c2cccnc2)NC(=O)c2cccc(Br)c2)CC1`, the “activity change, negative = inhibition” value is inactive: -2.88%.

As to `CN1CCN(Cc2nc3ccccc3c(=O)n2Cc2nc(-c3ccc4ccccc4c3)cs2)CC1`, the “activity change, negative = inhibition” value was inactive: 3.26%.

As to `C[C@H]1CC[C@]2(O[C@H](CCO)C[C@@H](O)[C@@H]2O)O1`, the “activity change, negative = inhibition” value was inactive: -25.6%.

As for `O=C(CSc1nc2ccccc2c(=O)n1CCCN1CCOCC1)Nc1cccc(S(=O)(=O)N2CCCCCC2)c1`, the Potency is active: 23.1 µM.

With `COc1nc(-c2ccc(C)cc2)ccc1-c1noc(-c2cccnc2)n1`, the “activity change, negative = inhibition” value is inactive: -23.4%.
